{"source": "PubChem BioAssay AID463173", "about": "(ICCB-Longwood Screening Facility, Harvard Medical School, 2010)", "note": "About 1,700 (3.3%) of roughly 52,000 compounds were called active. Rule as the data show it: active = survival mostly below about 52% (no sharp cut-off); inactive = mostly above about 56%. Some of the results follow."}
{"test_system": "Wild type", "test": "growth inhibition of S. aureus wild type versus tarO mutant, primary screen, teichoic acid synthesis inhibitors, RN4220, OD600 (AID 463173)", "details": "S. aureus RN4220 wild type/DeltatarO growth, OD600, 18 h, hits give low values, screened at 18.75 µg/mL (by protocol)"}
{"smiles": "O=C(CSc1nc(=O)n(Cc2cccnc2)c2c1CCC2)Nc1cccc(Cl)c1", "survival": "inactive: 84%"}
{"smiles": "Cc1nc(-c2ccc(Cl)cc2)sc1CCNC(=O)C(=O)Nc1ccc2c(c1)OCCO2", "survival": "inactive: 66%"}
{"smiles": "COc1ccc(N(C)C(=O)c2nn(-c3ccc(C)cc3)c(=O)n(C)c2=O)c(OC)c1", "survival": "inactive: 84%"}
{"smiles": "Cc1cc(C)cc(NC(=O)N2CCC(C(N)=O)(N3CCCCC3)CC2)c1", "survival": "inactive: 104%"}
{"smiles": "CCOC(=O)N1CCC(NC(=O)c2cnn(-c3ccc(F)cc3)c2-n2cccc2)CC1", "survival": "inactive: 74%"}
{"smiles": "C=CCc1c(C)[nH]c2c(OC)cccc2c1=S", "survival": "inactive: 86%"}
{"smiles": "Cc1ccc(-c2nn(-c3ccc(F)cc3F)c3c2cnc2ccc(F)cc23)cc1", "survival": "inactive: 65%"}
{"smiles": "CCN(CC)c1cc(C)c2cc(NC(=O)/C=C/c3ccccc3Cl)ccc2n1", "survival": "inactive: 76%"}
{"smiles": "N#CCC(=O)N/N=C/c1ccc(OC2CSC2)cc1", "survival": "inactive: 113%"}
{"smiles": "COc1ccc(N2CC(NC(=O)C(=O)c3c[nH]c4ccccc34)CC2=O)cc1", "note": "(configuration not stated)", "survival": "inactive: 73%"}
{"smiles": "COc1ccc(CNC(=O)CC(C)n2nc(C)cc2C)cc1", "note": "(configuration not stated)", "survival": "inactive: 88%"}
{"smiles": "O=C(CCSCc1cccc(Cl)c1)NCc1ccccc1Cl", "survival": "inactive: 47%"}
{"smiles": "CC(C)Oc1ccc(C(=O)N2CCN(c3nc4c(F)cc(F)cc4s3)CC2)cc1", "survival": "inactive: 120%"}
{"smiles": "O=c1c(N2CCN(c3ccccc3)CC2)csc2ccc(Cl)cc12", "survival": "inactive: 68%"}
{"smiles": "O=C(CSc1ncc2c(n1)-c1cc(Cl)ccc1N(Cc1ccccc1)S2(=O)=O)Nc1ccc(F)cc1F", "survival": "inactive: 82%"}
{"smiles": "CCOCCn1ccc2c(OCC(=O)NCc3ccc(F)cc3)cccc2c1=O", "survival": "inactive: 79%"}
{"smiles": "CC1CCCN(c2ncnc3c2cnn3-c2ccc(F)cc2)C1", "note": "(configuration not stated)", "survival": "inactive: 55%"}
{"smiles": "CCN1c2ccccc2-n2cccc2C12CCN(C(=O)Nc1ccccc1Br)CC2", "survival": "inactive: 81%"}
{"smiles": "CCCCn1cc(S(=O)(=O)c2ccccc2)c(=O)c2cc(F)c(N3CCN(CCC)CC3)cc21", "survival": "inactive: 74%"}
{"smiles": "O=C(OCC(=O)N1CCN(c2ccccc2)CC1)c1ccccn1", "survival": "inactive: 107%"}
{"smiles": "COc1ccc(C2CC(=O)N(Cc3ccccc3C)c3c2c(C)nn3-c2nc(C)cc(C)n2)c(OC)c1", "note": "(configuration not stated)", "survival": "inactive: 80%"}
{"smiles": "Cc1ccccc1-n1c(SCC(=O)Nc2ccc(Cl)cc2Cl)nc(O)cc1=O", "survival": "inactive: 64%"}
{"smiles": "CC(C)(C)c1ccc(-c2nc(SCCOc3ccc(Cl)cc3)n3[nH]c(=O)cc3n2)cc1", "survival": "inactive: 118%"}
{"smiles": "COc1ccc(NC(=O)CSC2=Nc3ccccc3C3=NC(CC(=O)NCc4ccccc4OC)C(=O)N23)cc1Cl", "note": "(configuration not stated)", "survival": "inactive: 74%"}
{"smiles": "COc1ccc(-c2nc3c4ccccc4n(CC(=O)Nc4ccc(C(C)C)cc4)c(=O)n3n2)cc1", "survival": "inactive: 68%"}
{"smiles": "CCc1sc(Nc2cccc(C)c2)nc1-c1cc2cccc(OC)c2oc1=O", "survival": "inactive: 67%"}
{"smiles": "Cc1ccc(S(=O)(=O)N2CCc3cc(C(=O)N(C)Cc4ccccc4)ccc32)cc1", "survival": "inactive: 84%"}
{"smiles": "CC(=O)N1CCc2c(sc3c2c(=O)n(-c2ccc(F)cc2)c(=O)n3Cc2cc(C)ccc2C)C1", "survival": "inactive: 94%"}
{"smiles": "Cc1cccc(N(C)S(=O)(=O)c2ccc(-c3cc(C)no3)s2)c1", "survival": "inactive: 133%"}
{"smiles": "CC(C)OC(=O)c1cc2c(ccn2C)n1CCC#N", "survival": "inactive: 111%"}
{"smiles": "COc1ccc(S(=O)(=O)c2c(O)c(C)cc(NS(=O)(=O)c3ccc(Cl)cc3)c2C(C)C)cc1", "survival": "inactive: 79%"}
{"smiles": "COc1ccc(-c2noc(-c3ccc(N4CCN(C)CC4)c([N+](=O)[O-])c3)n2)cc1", "survival": "inactive: 63%"}
{"smiles": "CC(C)(C)c1cc(-c2ccccc2)n[nH]1", "survival": "inactive: 132%"}
{"smiles": "COc1cccc(-n2c(=O)c3c(C)c(C(=O)N(C)C)sc3n(Cc3cccc(C)c3)c2=O)c1", "survival": "active: 10%"}
{"smiles": "COc1cc(C(=O)N2CCN(CCc3ccncc3)CC2)cc(OC)c1OC", "survival": "inactive: 86%"}
{"smiles": "O=C(CC(=O)NN=C1CCCC1)NCc1ccccc1", "survival": "inactive: 108%"}
{"smiles": "Cc1nc2ccccc2n1C(C)c1ccccc1", "note": "(configuration not stated)", "survival": "inactive: 111%"}
{"smiles": "COc1ccccc1-n1nc(-c2ccccc2)c2cnc3c(F)cc(F)cc3c21", "survival": "inactive: 119%"}
{"smiles": "COc1ccc(C(CNC(=O)COc2cc(C)cc(C)c2)N2CCCCC2)cc1", "note": "(configuration not stated)", "survival": "inactive: 84%"}
{"smiles": "COc1ccc(-c2nc(C)c(CCNC(=O)C(=O)Nc3ccccc3F)s2)cc1", "survival": "inactive: 111%"}
{"smiles": "Cc1ccc(NC(=O)Cn2c(=O)n(CC3CCC(C(=O)NC(C)C)CC3)c(=O)c3sccc32)cc1", "note": "(configuration not stated)", "survival": "inactive: 71%"}
{"smiles": "CCN1CCN(CCC(=O)Nc2ccc(F)cc2)CC1", "survival": "inactive: 105%"}
{"smiles": "COc1ccc(CCN2CCC(CNC(=O)c3cnn(-c4ccc(C)cc4)c3C3CCN(C(=O)OC(C)(C)C)CC3)CC2)cc1", "survival": "inactive: 140%"}
{"smiles": "Cc1ccc(NC(=O)CSc2nc3ccc(Br)cc3[nH]2)c(C)c1", "survival": "inactive: 67%"}
{"smiles": "Cc1ccc(N2CC(C(=O)NCCS(=O)(=O)N3CCN(c4ccccc4F)CC3)CC2=O)cc1", "note": "(configuration not stated)", "survival": "inactive: 99%"}
{"smiles": "Cc1nc2c3ccccc3nc(NNC(=O)CCC(=O)N3CCN(c4cccc(Cl)c4)CC3)n2n1", "survival": "inactive: 142%"}
{"smiles": "CCOc1ccc(N(Cc2ccccc2)C(=O)c2nc(SCC)ncc2Cl)cc1", "survival": "inactive: 115%"}
{"smiles": "Cc1cccc(NC(=O)CSc2nc3ccccc3nc2N2CCC(C)CC2)c1", "survival": "active: -9%"}
{"smiles": "O=C(COc1ccc(F)cc1)Nc1nnc(S(=O)(=O)N2CCc3ccccc32)s1", "survival": "inactive: 22%"}
{"smiles": "CN(C)CCN(C(=O)c1ccco1)c1nc2c(F)cc(F)cc2s1", "survival": "inactive: 64%"}
{"smiles": "CC1CCN(C(=O)CSc2c3c(nc4ccc(Cl)cc24)CCCC3)CC1", "survival": "active: -1%"}
{"smiles": "CCn1c(CNc2ccc(C)cc2)nnc1SCc1ccccc1", "survival": "inactive: 126%"}
{"smiles": "CC1=C(c2ccc(C(C)C)cc2)S(=O)(=O)NC1=NCc1ccccc1C", "survival": "inactive: 82%"}
{"smiles": "O=C(Nc1ccc(OC(F)(F)F)cc1)C1CCN(S(=O)(=O)c2ccc3[nH]c(=O)ccc3c2)CC1", "survival": "inactive: 90%"}
{"smiles": "Cc1ccc(Nc2cc(C)nc(-n3nc(C)cc3C)n2)cc1", "survival": "inactive: 111%"}
{"smiles": "O=C(NC1CCCCC1)c1ccc2c(c1)N(Cc1cccc(F)c1)C(=O)c1ccccc1S2", "survival": "inactive: 79%"}
{"smiles": "Cn1cnc(S(=O)(=O)N2CCC(C(=O)Nc3ccc(F)cc3F)CC2)c1", "survival": "inactive: 81%"}
